Screen size: about 310,000 compounds; about 2,200 (0.71%) showed an effect of 50% or more. The effect is printed as a negative number. The list shows a part of the results. Where a SMILES comes first, the peptide text is derived from it. The star is where a group is joined. Boc = CC(C)(C)OC(=O)*; OtBu = CC(C)(C)O*; tBu = CC(C)(C)*
What follows are compounds tested against human ether-à-go-go-related gene (hERG) potassium channel (human, UniProt Q12809) (assay: primary screen, population patch clamp on CHO cells stably expressing hERG).
Sequence of human ether-à-go-go-related gene (hERG) potassium channel (Q12809 whole entry, looked up): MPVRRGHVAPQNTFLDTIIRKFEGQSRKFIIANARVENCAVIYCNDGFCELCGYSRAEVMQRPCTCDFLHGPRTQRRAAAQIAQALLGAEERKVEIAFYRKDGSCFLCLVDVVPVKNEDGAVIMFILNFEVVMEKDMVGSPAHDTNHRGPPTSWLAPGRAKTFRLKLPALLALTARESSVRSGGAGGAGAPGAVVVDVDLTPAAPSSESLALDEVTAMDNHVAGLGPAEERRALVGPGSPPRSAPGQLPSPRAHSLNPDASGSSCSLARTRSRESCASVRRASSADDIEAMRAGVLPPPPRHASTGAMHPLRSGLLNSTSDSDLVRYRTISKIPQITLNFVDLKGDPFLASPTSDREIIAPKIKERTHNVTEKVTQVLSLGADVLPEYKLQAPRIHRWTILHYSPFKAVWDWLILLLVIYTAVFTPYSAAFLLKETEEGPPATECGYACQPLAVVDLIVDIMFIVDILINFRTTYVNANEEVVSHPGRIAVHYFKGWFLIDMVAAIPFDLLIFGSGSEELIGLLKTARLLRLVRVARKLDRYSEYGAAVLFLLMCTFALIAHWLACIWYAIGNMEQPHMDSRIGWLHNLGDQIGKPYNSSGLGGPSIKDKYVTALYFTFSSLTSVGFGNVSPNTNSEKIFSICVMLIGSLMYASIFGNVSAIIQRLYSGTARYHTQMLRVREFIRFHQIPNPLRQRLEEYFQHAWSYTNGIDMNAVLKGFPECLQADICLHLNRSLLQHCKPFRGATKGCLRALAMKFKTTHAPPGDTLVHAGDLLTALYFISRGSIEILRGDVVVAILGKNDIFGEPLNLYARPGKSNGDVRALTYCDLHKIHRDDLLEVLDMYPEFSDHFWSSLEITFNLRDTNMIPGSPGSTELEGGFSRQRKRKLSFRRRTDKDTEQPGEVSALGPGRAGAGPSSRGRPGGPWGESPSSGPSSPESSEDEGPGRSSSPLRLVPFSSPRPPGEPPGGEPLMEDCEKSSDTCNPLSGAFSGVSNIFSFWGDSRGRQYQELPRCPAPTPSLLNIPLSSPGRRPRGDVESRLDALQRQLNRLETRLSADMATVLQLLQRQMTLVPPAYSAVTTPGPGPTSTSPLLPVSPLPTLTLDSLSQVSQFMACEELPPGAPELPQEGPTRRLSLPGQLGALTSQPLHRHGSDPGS

Row | Compound | hERG current change (%, negative = inhibition) at 1uM
1 | Cc1cc(N/N=C/c2ccccc2O)nc(N2CCOCC2)n1 | 6.7%
2 | CN1CCN(/C=N/C2=C(C#N)C(c3ccccc3)C3=C(CC(C)(C)CC3=O)O2)CC1 (stereo not shown) | -13.4%
3 | O=C(O)c1cc2ncc(CCO)cn2n1 | 17.1%
4 | COc1ccc(NC(=O)CN(C)C(=O)c2cc(-c3ccccc3)nc3ccccc23)cc1 | 4.39%
5 | CC(OC(=O)Cc1ccsc1)C(=O)Nc1ccc(Cl)cn1 (stereo not shown) | 13.6%
6 | CCN1CCN(c2cn[nH]c(=O)c2Cl)CC1 | 11%
7 | COc1cccc(/C=C/C(=O)c2c(O)cc(C)oc2=O)c1O | 11.9%
8 | COc1ccc(/C=N/NC(=O)CN(C)C(=O)OCc2ccccc2)cc1OC | 15.4%
9 | Cc1noc(C)c1COc1ccc(C(=O)NNC(=O)c2ccccc2)cc1 | 13%
10 | Cc1c(N=C2C(=O)Nc3ccccc32)c(=O)n(-c2ccccc2)n1C | 17%
11 | CCOC(=O)C1=C(C)NC(=O)NC1/C=C/c1ccccc1 (stereo not shown) | 4.94%
12 | O=C(O)C1CCC(CNCc2ccncc2)CC1 (stereo not shown) | 16.2%
13 | O=S(=O)(NN=C1CCCCC1)c1ccccc1 | -0.225%
14 | CC1(C)CC(=O)C(N=Nc2ccc(OC(F)F)cc2)=C(O)C1 | 3.99%
15 | C=CCc1ccc(OCCOc2cccc(/C=N/n3cnnc3)c2)c(OC)c1 | 8.04%
16 | COc1ccc(COc2ccsc2C(=O)Nc2ccc(Cl)cc2)cc1 | 8.49%
17 | CCn1c(CC(=O)Nc2ccc(F)cc2)nnc1SCC(=O)N1CCOCC1 | 6.23%
18 | N#Cc1ccccc1COC(=O)c1cccnc1N | 12.7%
19 | COc1ccc2sc(-c3ccc(N(C)C)cc3)c(-c3cnc(OC)nc3)c2c1 | 16.2%
20 | CC(=O)OC1c2ccccc2C(=O)N1Cc1ccccc1Cl (stereo not shown) | 4.79%
21 | CCCCC(=O)Nc1ccc(C(=O)Nc2nc(CC(=O)OCC)cs2)cc1 | -8.18%
22 | CC(C)(C)OCC(NC(=O)C(CC(N)=O)NC(=O)OC(C)(C)C)C(=O)OC(C)(C)C (stereo not drawn) (Boc-Asn-Ser(tBu)-OtBu; configuration not given here) | 4.26%
23 | COc1ccc2[nH]c(=O)c(CNc3ccccc3OC)cc2c1 | 4.55%

Row | Compound | hERG current change (%, negative = inhibition) at 1uM
24 | Cc1c(/C=N/Nc2nc3ccccc3[nH]2)c2ccccc2n1C | 13.6%
25 | CSCCC(C(=O)OC1CCOC1=O)N1C(=O)c2ccccc2C1=O (stereo not shown) | 8.69%
26 | CN(CC(=O)Nc1c(Cl)cccc1Cl)C(=O)c1n[nH]c2ccccc12 | 6.39%
27 | CCC(C)N(C(=O)COC(=O)C1C(C(=O)OC)=C(C)NC(C)=C1C(=O)OC)C1CCS(=O)(=O)C1 (stereo not shown) | 7.63%
28 | CCCOc1ccc(C(=O)OCC(=O)c2c(N)n(C)c(=O)n(C)c2=O)cc1OC | 13.4%
29 | O=c1[nH]c2c(s1)C=Nc1ccccc1N2 | 9.22%
30 | Cn1cc([N+](=O)[O-])c(C(=O)Nc2ccc(-c3nc4ccccc4[nH]3)cc2)n1 | 15.8%
31 | COc1ccc2c(c1)C(=NN)c1cc(OC)ccc1-2 | 10.6%
32 | COc1ccc(NC(=O)C2=C(C)NC(=O)NC2c2cccs2)c(OC)c1 (stereo not shown) | 11.9%
33 | COC1=C/C(=C/c2c(N)n3cc(C)sc3nc2=O)C=CC1=O | 8.67%
34 | O=S(=O)(Cc1ccccc1)Nc1ccccc1 | 15.7%
35 | O=C(Nc1cccc(Cl)c1)Nc1ccccc1C(=O)NCc1ccco1 | 9.74%
36 | CC(=O)Nc1ccc(S(=O)(=O)NCc2ccc(C(=O)NCCCN3CCC(C)CC3)cc2)cc1 | 16.7%
37 | CC(NCc1ccc(F)cc1)C(=O)NC1CCCCC1.O=C(O)C(=O)O (stereo not shown) | 11.5%
38 | Cc1ccc(NS(=O)(=O)c2ccc(C(=O)NCC(c3ccco3)N3CCCCC3)cc2)cc1 (stereo not shown) | 17.5%
39 | CCSc1nnc(NC(=O)Cc2ccccc2OC)s1 | 10.4%
40 | Cc1cc(NC(=S)N(Cc2ccc(Br)cc2)Cc2ccc(C(=O)O)cc2)ccc1Cl | 2.01%
41 | CN1CCN(NC(=O)Nc2cccc(Cl)c2Cl)CC1 | 11%
42 | O=C(Nc1ccc(O)c2c(=O)cc(-c3cccc(Cl)c3)oc12)c1ccccc1Cl | 7.8%
43 | O=C(Cc1cccs1)Nc1cccc(C(=O)Nc2ccc(C(=O)O)cc2)c1 | 14%
44 | CC(C)OC(=O)c1cccnc1N1CCN(c2ccc(F)cc2)CC1 | 10.8%
45 | O=C(CCc1ccccc1)Nc1cc(NC(=O)CCc2ccccc2)cc(C(=O)O)c1 | -6.24%
46 | CC(Cc1cccs1)NC(=O)c1cccc(Cl)c1 (stereo not shown) | 0.335%

Row | Compound | hERG current change (%, negative = inhibition) at 1uM
47 | O=C(Nc1ccccc1N1CCOCC1)c1ccc(S(=O)(=O)NCc2ccco2)cc1 | 4.55%
48 | COc1ccccc1CNC(=O)c1ccc2c(=O)n(CCCN3CCCC3=O)c(=S)[nH]c2c1 | 15%
49 | N#Cc1nc(-c2cccs2)oc1NCc1ccc2c(c1)OCO2 | 10.3%
50 | CCN(CC)CCCN=C(N)N.O=S(=O)(O)O | 3.42%
51 | CCCN(CC1CC1)C(=O)COc1ccccc1C(=O)NCc1ccccc1 | -8.29%
52 | COc1cccc2c(=O)n(CC(=O)Nc3ccccc3F)ccc12 | 14.4%
53 | CC(C)n1nc(C(=O)NNC(=O)c2ccc(OC(F)F)cc2)c2ccccc2c1=O | -33.9%
54 | CC(=O)N1CCN=C1SCc1cccc(C(F)(F)F)c1 | 2.61%
55 | Cc1cc(C)n2c(SCC(C)C)nnc2n1 | 12.6%
56 | CC(C)(C)n1ncc(Oc2ccccc2[N+](=O)[O-])c(Cl)c1=O | 8.26%
57 | COCCNC(=O)C(c1c[nH]c2ccccc12)N(C(=O)c1snc(C(N)=O)c1N)c1cccc(OC)c1 (stereo not shown) | 13.4%
58 | O=C(NCCCn1ccnc1)C(=O)NCC1OCCCN1S(=O)(=O)c1ccccc1 (stereo not shown) | 6.93%
59 | O=c1c2cnn(-c3ccccc3)c2ncn1CCc1ccccc1 | 13.9%
60 | Cl.Fc1ccc(-c2ccc(CNCc3ccccn3)o2)cc1Cl | 3.85%
61 | CC1CN(C(=S)Nc2cccc(Cl)c2Cl)CC(C)O1 (stereo not shown) | 2.73%
62 | CCCNC(=O)c1ccc2snnc2c1 | 4%
63 | CCOC(=O)/C(C(=O)Nc1ccccc1Br)=C1/NC(C)(C)Cc2ccccc21 | 2.1%
64 | Cc1csc2ncc(C(=O)NCCC(c3ccccc3)c3ccccc3)c(=O)n12 | 15%
65 | CCN(CCn1cccn1)C(=O)CCc1nnc(-c2ccccc2)o1 | 4.27%
66 | CSc1ccc(CCNC(=O)CCc2nnc3ccc(N4CCCC4)nn23)cc1 | 6.95%
67 | CCN(CC(=O)Nc1c(F)cccc1F)C(=O)CNC(=O)C1CCCCC1 | 8.44%
68 | COc1ccc(-c2nc(C#N)c(NCc3ccccc3Cl)o2)cc1 | 7.91%
69 | Cc1ccc2nc(NC(=O)C3CCCN(S(=O)(=O)c4cnc[nH]4)C3)sc2c1 (stereo not shown) | -4.75%

Row | Compound | hERG current change (%, negative = inhibition) at 1uM
70 | COc1cccc(COCC(O)CN2CCC(C(N)=O)CC2)c1 (stereo not shown) | 13.1%
71 | Cc1cccc(C)c1NC(=O)CNC(=O)c1ccc(COc2ccccc2)o1 | -0.44%
72 | CCOC(=O)c1ccc(NC(=O)CSc2nccn2C)cc1 | 10.6%
73 | Cc1cc(C(F)(F)F)nn2cnnc12 | -1.32%
74 | COc1ccc(OC)c(Nc2nc(-c3sc(NC(=O)CC(C)C)nc3C)cs2)c1 | 17.6%
75 | O=C(c1ccccc1)N1CCN(c2ncnc3c(-c4ccccc4)nsc23)CC1 | 4.11%
76 | CSc1nnc(C)c(/C=C/Nc2ccc(F)cc2)n1 | 14.1%
77 | CCS(=O)(=O)N1CCN(Cc2c[nH]c3ccccc23)CC1.O=C(O)C(=O)O | 12.3%
78 | CCc1nc2ccc(C)cc2c(C(=O)Oc2cccc3cccnc23)c1C | 15.8%
79 | COc1cccc(/C=C/C(=O)OCC(=O)Nc2cccc(S(=O)(=O)N3CCOCC3)c2)c1OC | 0.609%
80 | COc1ccccc1NC(=O)CCCC(=O)OCC(F)(F)C(F)F | 9.89%
81 | CC(C)C(=O)Nc1nnc(SCC(=O)NCc2ccco2)s1 | -5.44%
82 | N#CCCSc1nc(N2CCOCC2)c2c(c1C#N)CCCC2 | 6.7%
83 | CN1CCN(CCCNC(=O)c2cc3c(-c4ccc(Cl)cc4)nn(C)c3s2)CC1 | 0.447%
84 | CC(=O)C1C(c2cccc(F)c2)NC(=O)NC1(O)C(F)(F)F (stereo not shown) | 5.77%
85 | Cc1ccc(Nc2nc(N/N=C/c3c[nH]c4ccccc34)nc(N3CCOCC3)n2)cc1 | 3.38%
86 | CC(C)NC(=O)C(=O)NCCCN1CCOCC1 | 21.4%
87 | CN1CCN(C2CCCCC2NS(=O)(=O)c2ccccc2)CC1 (stereo not shown) | 7.03%
88 | Cn1c(=O)oc2cc(S(=O)(=O)NCc3ccncc3)ccc21 | 10.9%
89 | Cc1c[n+]([O-])n(-c2ccc(C(=O)O)cc2)n1 | 4.51%
90 | O=C(NCCc1ccccc1)c1ccco1 | 4.6%
91 | COC(=O)c1c(NC(=O)c2ccc(C)cc2)csc1C | 8.57%

Reference: PMC4336329 (PLoS ONE, 2015)
